{"source": "PubChem BioAssay AID588795", "about": "(National Center for Advancing Translational Sciences (NCATS), 2011)", "note": "Several values for one entry are separate records, joined by “and”; a condition that tells them apart may be missing. Identical values can stand only once. The campaign covered roughly 390,000 compounds. About 1,400 (0.36%) were called active. This list was built around the results that the source calls inconclusive (neither active nor inactive); the mix of calls is not that of the screen. Calls follow the shape of the dose curve; as a rule, active = well fitted inhibition curve with a large enough effect; inconclusive = small, poorly fitted or top-dose-only effect; inactive = no such curve, though single readings can be large or run the other way. Potencies beside an inconclusive call are fits to weak or partial responses and may not hold up. % is scaled to controls: 0 for no effect and ±100 for the full control effect; potency is read from the fitted curve at half-maximal effect; tags tell the direction and shape of the fitted curve.", "data": [{"biological_target": "Flap endonuclease 1 (Homo sapiens) (UniProt P39748)", "sequence (P39748 whole entry, looked up)": "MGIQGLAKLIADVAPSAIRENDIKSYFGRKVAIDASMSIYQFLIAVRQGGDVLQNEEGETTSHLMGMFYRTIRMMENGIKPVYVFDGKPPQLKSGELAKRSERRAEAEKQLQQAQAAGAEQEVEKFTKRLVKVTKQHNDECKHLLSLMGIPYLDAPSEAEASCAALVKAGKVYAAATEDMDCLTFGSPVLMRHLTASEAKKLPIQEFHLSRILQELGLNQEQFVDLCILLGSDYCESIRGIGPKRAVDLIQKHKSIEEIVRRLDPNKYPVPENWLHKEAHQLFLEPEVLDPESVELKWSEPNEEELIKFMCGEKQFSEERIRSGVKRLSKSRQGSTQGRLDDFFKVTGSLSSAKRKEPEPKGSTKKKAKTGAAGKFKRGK", "experiment": "qHTS Assay for the Inhibitors of Human Flap endonuclease 1 (FEN1); also: nearly all actives have a fitted effect of over 65% in size.", "conditions": "Recombinant FEN1 flap cleavage, fluorescence, 15 min; series mostly up to 114 µM; activity change, negative = inhibition: at the top concentration", "in_short": "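In this screen, 50 nM flap DNA substrate was added to 10 nM FEN1 pretreated with compound for 15 min at room temperature; cleavage was followed with reads at 0 and 15 min, and Hill fitting gave concentration–response parameters.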", "values": [{"smiles": "CCC1CCCCN1CCCNC(=O)c1cc2c(Cl)nc3ccc(C)cc3c2s1", "note": "(configuration not stated)", "Potency": "active: 89.1 µM"}, {"smiles": "COc1ccc(/C=C(\\C#N)c2nc(-c3ccc(Cl)c(Cl)c3)cs2)cc1OC", "activity change, negative = inhibition": "inactive: -11.5%"}, {"smiles": "COC(=O)C1=C(C)n2cnnc2NC1c1ccc(Cl)cc1", "note": "(configuration not stated)", "Potency": "inconclusive: 25.1 µM [inhibitor, single point]"}, {"smiles": "CCC12CSc3nc(Cl)ccc3N1C(=O)C(=O)N2C", "note": "(configuration not stated)", "Potency": "inconclusive: 28.2 µM [inhibitor, single point]"}, {"smiles": "CCN(CC)CCNC(=O)CCCCn1c(=S)[nH]c2c([nH]c3ccc(OC)cc32)c1=O", "Potency": "inconclusive: 28.2 µM [inhibitor, partial curve, poor fit]"}, {"smiles": "O=C1/C(=C/c2ccco2)SC(=S)N1CC1CCCO1", "note": "(configuration not stated)", "activity change, negative = inhibition": "inactive: -23.3%"}, {"smiles": "Cc1cccc(-n2c3nc(=O)[nH]c(=O)c-3cc3cc([N+](=O)[O-])ccc32)c1", "Potency": "inconclusive: 89.1 µM [inhibitor, single point]"}, {"smiles": "O=C(/C=C/c1ccc([N+](=O)[O-])cc1)NCc1ccccn1", "Potency": "inconclusive: 39.8 µM [inhibitor, partial curve, poor fit]"}, {"smiles": "CCOC(=O)c1cccc(NC(=O)Cc2ccc(NC(=O)N3CCCCc4ccccc43)cc2)c1", "activity change, negative = inhibition": "inactive: 12.1%"}, {"smiles": "COc1ccc(NC(=O)COC(=O)Cc2c[nH]c3ccccc23)cc1Cl", "Potency": "inconclusive: 79.4 µM [inhibitor, partial curve, poor fit]"}, {"smiles": "CCOc1ccccc1CNS(=O)(=O)c1cnc(N)nc1", "activity change, negative = inhibition": "inactive: -2.54%"}, {"smiles": "CCOC(=O)c1[nH]c(C)c(CCC(=O)N2CCN(c3cc(Cl)ccc3C)CC2)c1C", "Potency": "inconclusive: 50.1 µM [inhibitor, partial curve, poor fit]"}, {"smiles": "CC1(OC(=O)C2CCCC2)C(=O)C=C2C=C(c3ccsc3)N(Cc3ccco3)C=C2C1=O", "note": "(configuration not stated)", "Potency": "inconclusive: 31.6 µM [inhibitor, partial curve]"}, {"smiles": "Oc1[nH]c2ccccc2c1N=Nc1nncc2ccccc12", "Potency": "inconclusive: 50.1 µM [inhibitor, partial curve, poor fit]"}, {"smiles": "C=CCC1=C/C(=C\\c2c(N)n3nc(CC(=O)N4CCOCC4)sc3nc2=O)C=C(OC)C1=O", "Potency": "inconclusive: 89.1 µM [inhibitor, single point]"}, {"smiles": "Cn1cncc1C#Cc1c(C=O)n(C)c2ccccc12", "Potency": "inconclusive: 79.4 µM [inhibitor, partial curve, poor fit]"}, {"smiles": "O=C(CN1C(=O)COc2ccc(S(=O)(=O)N3CCOCC3)cc21)N1CCN(c2cccc(C(F)(F)F)c2)CC1", "activity change, negative = inhibition": "inactive: -2.63%"}, {"smiles": "COC(=O)[C@@H](N)Cc1ccc(O)c(O)c1", "Potency": "inconclusive: 6.7 µM [inhibitor, partial curve, poor fit]"}, {"smiles": "Cc1ccc(NC(=O)CSc2nnc(C)n3c2cc2sccc23)c(C)c1", "activity change, negative = inhibition": "inactive: -5.93%"}, {"smiles": "Cc1ccccc1-c1nnc(CN2CCN(c3cccc(C)c3C)CC2)o1", "Potency": "inconclusive: 79.4 µM [inhibitor, partial curve, poor fit]"}, {"smiles": "COC(=O)C1=C(C)N(C(C)c2ccccc2)C(=O)/C1=C\\c1ccco1", "note": "(configuration not stated)", "Potency": "inconclusive: 70.8 µM [inhibitor, partial curve, poor fit]"}, {"smiles": "O=[N+]([O-])c1cccc(C2Nc3cccc4cccc(c34)N2)c1", "Potency": "inconclusive: 50.1 µM [inhibitor, partial curve]"}, {"smiles": "Cc1ccc(OCCSc2nc3ncnc(N)c3[nH]2)cc1", "Potency": "inconclusive: 100 µM [inhibitor, single point]"}, {"smiles": "CCc1cc2c(=O)oc(-c3ccccc3F)nc2s1", "Potency": "inconclusive: 56.2 µM [inhibitor, partial curve, poor fit]"}, {"smiles": "Cc1ccc(S(=O)(=O)N2C[C@@H]3[C@H]4CC[C@H](C4)[C@@H]3[C@@H](C)[C@@H]2c2ccco2)cc1", "Potency": "inconclusive: 89.1 µM [inhibitor, single point]"}, {"smiles": "Cc1ccc(CN2CCC(CNC(=O)c3cc4ccc5cccnc5c4[nH]3)CC2)cc1", "Potency": "inconclusive: 50.1 µM [inhibitor, partial curve, poor fit]"}, {"smiles": "COc1ccc(Nc2nnc(-c3ccc(O)cc3)c3ccccc23)cc1C(N)=O", "Potency": "inconclusive: 89.1 µM [inhibitor, single point]"}, {"smiles": "CC(=O)c1ccc(N2CCN(C(=O)c3nn(C)c4c3CS(=O)(=O)c3ccccc3-4)CC2)cc1", "activity change, negative = inhibition": "inactive: 16.8%"}, {"smiles": "CCOc1ccc(C(=O)CCC(=O)Nc2ccc(C)cn2)cc1", "activity change, negative = inhibition": "inactive: 0.3%"}, {"smiles": "COc1ccccc1N1CCN(C(=O)c2cnn(-c3ccc(C)c(C)c3)c2C2CCN(C(=O)OC(C)(C)C)CC2)CC1", "activity change, negative = inhibition": "inactive: -7.12%"}, {"smiles": "CN=c1scc(-c2ccccc2F)n1/N=C/c1ccc(O)c(O)c1O", "Potency": "inconclusive: 50.1 µM [inhibitor, partial curve]"}, {"smiles": "COc1ccc(S(=O)(=O)n2nc(C)c(S(=O)(=O)N3CCCCCC3)c2C)cc1OC", "activity change, negative = inhibition": "inactive: 6.13%"}, {"smiles": "COC(=O)c1cccc(NC(=O)CSc2nc(O)c(-c3ccccc3)c(=O)[nH]2)c1", "activity change, negative = inhibition": "inactive: 10%"}, {"smiles": "Cc1cc(N)ccc1N1CCCC1", "Potency": "active: 39.8 µM"}, {"smiles": "CCOC(=O)c1cnc2c(C)cccc2c1NCCc1ccc(OC)c(OC)c1", "Potency": "inconclusive: 56.2 µM [inhibitor, partial curve, poor fit] and inconclusive: 79.4 µM [inhibitor, single point]"}, {"smiles": "CCc1ccc(Nc2n[n+](-c3ccccc3)c(-c3ccc(SC)cc3)s2)cc1", "activity change, negative = inhibition": "inactive: -3.07%"}, {"smiles": "COc1cc(NC(=O)CSc2nc3c(C)ccc(C)c3cc2C)c(C(=O)O)cc1OC", "Potency": "inconclusive: 44.7 µM [inhibitor, partial curve, poor fit]"}, {"smiles": "O=C(Nc1ccc(O)cc1)c1ccc2c(c1)C(=O)N(N1C(=O)c3ccccc3C1=O)C2=O", "activity change, negative = inhibition": "inactive: -15%"}, {"smiles": "COc1ccc([N+](=O)[O-])cc1NC(=S)NC(C)=O", "activity change, negative = inhibition": "inactive: 0.521%"}, {"smiles": "COc1cc2nc(N3CCCCC3)nc(NC3CC3)c2cc1OC", "Potency": "inconclusive: 39.8 µM [inhibitor, partial curve, poor fit]"}, {"smiles": "CCc1ccc(N=C2NC(=O)/C(=C/c3cc(OC)c(O)c(OC)c3)S2)cc1", "Potency": "inconclusive: 39.8 µM [inhibitor, full curve, poor fit]"}, {"smiles": "CN=C(c1ccc(C)cc1)n1c(=S)nc(-c2ccc(C)cc2)n(C)c1=S", "activity change, negative = inhibition": "inactive: 14.4%"}]}]}
